The list shows a part of the results. These are noisy estimates, calculated here from bound and input reads.
target: T1, Pho4 (S. cerevisiae) (UniProt P07270); assay: relative binding free energy (BET-seq); higher = weaker binding; settings: reference: library average
T1 sequence: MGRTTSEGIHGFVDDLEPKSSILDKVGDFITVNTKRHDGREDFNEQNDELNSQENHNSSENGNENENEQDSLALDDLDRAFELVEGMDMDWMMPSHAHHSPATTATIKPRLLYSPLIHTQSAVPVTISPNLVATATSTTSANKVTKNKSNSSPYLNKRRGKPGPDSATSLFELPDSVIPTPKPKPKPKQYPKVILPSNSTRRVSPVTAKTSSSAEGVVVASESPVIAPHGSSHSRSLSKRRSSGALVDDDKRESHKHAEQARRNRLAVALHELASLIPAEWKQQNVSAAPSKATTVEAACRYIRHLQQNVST

Sequence | relative binding free energy [kcal/mol]
AGTTGCACGTGCATAT | -0.06
TGTGTCACGTGTTATA | 0.11
ATAGTCACGTGCAGTG | -0.1
CTGGTCACGTGTGGTG | 0.04
TTGGGCACGTGTGGGA | 0.01
ATTGTCACGTGATCTT | 0.1
TTGACCACGTGTGTTG | -0.15
AAAGTCACGTGTTAAT | 0.19
TTTATCACGTGACGTA | 0.32
AGCGTCACGTGGATAG | 0.22
GGCGGCACGTGGAGGT | -0.03
TATTACACGTGGTCGT | 0.05
GGCGACACGTGCGTGT | -0.1
GAACTCACGTGGGGGG | 0.13
GTGGTCACGTGGGGCA | -0.06
ATTTTCACGTGGTTTT | 0.34
GCCTTCACGTGTTAGG | 0.42
ACGAGCACGTGATTGT | 0.11
GAGTGCACGTGAGCAT | 0.37
ACTATCACGTGTGGGG | 0.24
ATTTTCACGTGATAGT | 0.33
TTCGTCACGTGAGTAT | 0.26
ACGGTCACGTGGATGC | 0.28

Sequence | relative binding free energy [kcal/mol]
TGGCGCACGTGATGTA | 0.11
TGAGTCACGTGAAGCG | 0.37
GGCTGCACGTGGAGGG | -0.06
AATATCACGTGTGAGC | 0.26
TTGATCACGTGTCAGT | 0.06
GTGGTCACGTGTGACT | 0.22
TTGATCACGTGGCGTA | 0.05
CGATACACGTGTGTGA | 0.22
ATGTTCACGTGAGGAT | 0.31
TTATACACGTGGGAAT | 0.09
TGGTCCACGTGTCGAG | 0.15
TAAGTCACGTGAGAAG | 0.28
CAGGTCACGTGAGTGG | 0.35
TTGGTCACGTGCGAAA | 0.19
TACGTCACGTGGCTGT | 0.14
TTCAGCACGTGGTTTG | -0.11
TGGTTCACGTGATGAT | 0.38
GAGGTCACGTGTAATT | 0.24
TTATACACGTGTATGT | 0.06
CGATGCACGTGGTGTC | 0
TGTGTCACGTGGTGAG | 0.04
ATATGCACGTGACTGA | 0.24
TGTTCCACGTGGAGAG | 0.04

Sequence | relative binding free energy [kcal/mol]
TGCTTCACGTGGTATA | 0.15
TTGGCCACGTGGTAAT | 0
GACGGCACGTGGTGAT | 0.02
ACGTGCACGTGGGGCG | -0.25
TGGATCACGTGTGGGC | 0.21
GTCGGCACGTGGGTAG | -0.25
TCTGTCACGTGATTTT | 0.17
CCTTGCACGTGTGAGG | 0.08
TGTTCCACGTGATTGG | 0.09
TTATTCACGTGGGGAC | 0.18
AGAGTCACGTGTTTCT | 0.13
GGTCGCACGTGAGTTG | 0.2
AAAGACACGTGATGGG | 0.04
ATAATCACGTGTTTTA | 0.06
GTGGTCACGTGCGCGT | 0.04
GGTGACACGTGCGTTG | -0.06
GTACGCACGTGTGGAA | 0.17
TTGGACACGTGCGGTT | 0.09
AAAAGCACGTGGTGGG | 0.01
TTTTACACGTGCTTTA | 0.02
GTGGTCACGTGACATA | 0.4
AGTTGCACGTGGTTAA | -0.06
TGGTTCACGTGACTGT | 0.34

Sequence | relative binding free energy [kcal/mol]
TGGATCACGTGGTATC | 0.13
ATTCTCACGTGTGTTG | 0.17
TTGAACACGTGTGTGC | 0.09
GCGTACACGTGAGTGG | 0.27
TTTGGCACGTGTGAGT | 0.1
GGCGCCACGTGAAGGG | 0.12
TGCTGCACGTGGGTTG | -0.03
GTCTCCACGTGGTTGG | -0.01
GGTGTCACGTGTTGGT | 0.11
AGCGGCACGTGCTGGG | -0.04
CATTGCACGTGGGCGG | -0.23
TATTGCACGTGGCATG | -0.11
GTGTTCACGTGCTTGT | 0.33
GCGTGCACGTGGTGTA | -0.22
TATTACACGTGGTGAA | 0.09
AGGGCCACGTGCTTGT | -0.25
TTGAGCACGTGGAGGT | -0.16
TGTTGCACGTGACGAG | 0.2
AGAATCACGTGGGCAG | 0.1
AGGTGCACGTGTTAAA | -0.04
GGACTCACGTGGGTAG | 0.09
ACTGTCACGTGGTCTG | 0.07
AGAATCACGTGGCGGG | 0.1

Sequence | relative binding free energy [kcal/mol]
GTATACACGTGTGGGT | 0.05
ATTTCCACGTGTCTTT | 0.31
GACGACACGTGGCGGG | 0.11
TTAAGCACGTGATGGC | 0
TCGGACACGTGGCTGT | -0.05
CAAGTCACGTGTTTTT | 0.13
AAAGGCACGTGCGTTA | -0.06
GATTTCACGTGAGGTA | 0.39
ATGCGCACGTGGGTGC | -0.3
CGGATCACGTGTGATG | 0.22
TCAGTCACGTGGTATT | 0.06
GAGGTCACGTGATGAT | 0.32
TAAAGCACGTGGGCAG | -0.22
GTTACCACGTGGGGGT | -0.17
CGATTCACGTGGGGGA | 0.24
CGGAGCACGTGTGGTG | 0.04
TGAATCACGTGTAGGT | 0.15
GTATCCACGTGTTTGA | 0.15
TTGTACACGTGCGCGT | -0.1
GGTGTCACGTGCTACG | 0.12
GTGAACACGTGTAGGG | 0.08
ATAATCACGTGAGGGA | 0.41
GGGTGCACGTGGGGCG | -0.08
